In the supplement of paper PMC11417369:
This is one part of the list.

system: PfAP2-HC AP2 domain (GST-tagged); experiment: gcPBM binding intensity (ln(normalized median fluorescence intensity)); higher = stronger DNA binding
Summary of the method: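 Binding intensity is the highest Masliner-normalised natural-log median intensity over replicate spots in either probe orientation. To obtain it, GST-tagged P. falciparum DNA-binding domains made in E. coli were incubated for 1 h on an Agilent 4 × 180k array of primer-extended double-stranded 36-bp intergenic genomic probes plus negative controls. Detection used Alexa488 anti-GST antibody with scanning at 488 nm.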

Sequence	gcPBM binding intensity (ln)
TTAAAATATACATAAACACACACAAAACGTTTAAGA [CACACA_site8267]	10.4
AGGATATATAAGTATACACACATATTTATATTTATA [CACACA_site6239]	9.75
TAACAATAACTTTATACACACATAATATATATATAT [CACACA_site3543]	9.81
TGTATTTATAATAAAACACACATTTTTAATGTGCTC [CACACA_site4908]	9.74
AAAAAAAAAAAAAACACACACACACCCATAAATATA [CACACA_site151]	11.2
TTTGTGTTTATAAATTGTACAAAGGTGCAAGAAGAA [XGTACX_site2159]	9.8
AAAAAAAAAAAACACACACACAATAGTATATAAATC [CACACA_site956]	10.5
ATATGATCATAAAACACACACACAAAAAAAAAAAAA [CACACA_site1806]	10.8
TTCAAGCCCTTCTGCTTACACACAGTAATTATTGTG [CACACA_site2952]	10
TATTTTTATTATATGGTGCATATATACATACATATA	9.67
AAGTGCATATTATTCACACATAATAATTGTATACCT [CACACA_site5965]	9.74
TGTAAATTATAACGTGCACACATATTTAAAATGAAA [CACACA_site8915]	9.77
ATATAGAAAATGCATACACACTTTATAAATATATTT [CACACA_site6553]	9.82
AGATATTTATTGAGTGCATGTTATAAAGGGAAAAAA [TGCATGCA_site88]	9.56
ATCCACTTTTTGAAGACACACACAAAAAAAAAAAAA [CACACA_site8818]	9.73
AATTAGATGGATAAATGTACATAATGTGAATATATT [XGTACX_site86]	9.88
TAAAAATAATTTGCATGTACATAGGTCGATGTATTT [XGTACX_site1357]	9.67
ATTATATTTTGTAAATGTACATTTATATATTTTGTA [XGTACX_site1226]	9.74
AAAAAAAAAAAAAAAGCATGCACATATTATTTTTTT [TGCATGCA_site416]	9.51
ATTCATAAACGTGTGTTAATATGAATTTAAACATAA [XGTACX_negctrl_site213]	9.64
ATATAAATAAAATATACACACATAAATATAACGACA [CACACA_site1637]	10
ACGAAGATTTATCTTGCACACGCAAAAAAAAAAAAA [CACACA_site7933]	9.58
AACATTTCCTTTCTGTGTACATATAAACCCATCTAT [XGTACX_site2071]	9.74
TTTAAAAAAAAAAATACACACATAAAAATTTTCAAA [CACACA_site703]	9.64
TTAATAATTAATTATAGTACACATTTATATTAATAA [XGTACX_site190]	9.48
